Laboratory results published in the supplement of paper PMC10369915.
This is one part of the list. Rule as the data show it: active = 3.2 or more and inactive = the rest. Only a few entries rise above the background.

Tests used:
Assay in all cases: enrichment score (SH2-bound / input frequency) (ratio); bacterial display of known human phosphotyrosine sites (pTyr-Var adds point mutants) read by sequencing; higher = stronger binding; tyrosines were phosphorylated by kinases first
Details in all cases: peptide library: pTyr-Var
[1] = target: SHP2 C-SH2 domain E139D
[2] = target: SHP2 C-SH2 domain wild-type
[3] = target: SHP2 N-SH2 domain L43F
[4] = target: SHP2 N-SH2 domain T42A
[5] = target: SHP2 N-SH2 domain T52S
[6] = target: SHP2 N-SH2 domain wild-type
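Also: displayed peptides selected on beads carrying the immobilized SH2 domain, with library peptides lacking any tyrosine serving as negative controls.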

LITTLYIGFLD [KCNQ1_Y267_G272D]
enrichment score [1]: inactive: 2.22 | enrichment score [2]: inactive: 2.84 | enrichment score [3]: inactive: 2.57 | enrichment score [4]: inactive: 1.96 | enrichment score [5]: inactive: 2.61 | enrichment score [6]: inactive: 3.05

DRKRQYELLKL [KIF4B_Y684]
enrichment score [1]: inactive: 0.973 | enrichment score [2]: inactive: 0.808 | enrichment score [3]: inactive: 0.818 | enrichment score [4]: inactive: 0.603 | enrichment score [5]: inactive: 0.712 | enrichment score [6]: inactive: 1.12

ESLRPYDVMDV [KCNQ2_Y562]
enrichment score [1]: inactive: 0.724 | enrichment score [2]: inactive: 0.692 | enrichment score [3]: inactive: 0.779 | enrichment score [4]: inactive: 0.842 | enrichment score [5]: inactive: 0.808 | enrichment score [6]: inactive: 0.873

DRKRQCELLKL [KIF4B_Y684_Y684C]
enrichment score [1]: inactive: 1.35 | enrichment score [2]: inactive: 1.43 | enrichment score [3]: inactive: 0.979 | enrichment score [4]: inactive: 1.02 | enrichment score [5]: inactive: 1.24 | enrichment score [6]: inactive: 1.46

FPRAWCRRSIA [KIAA1109_Y4272_Y4272C]
enrichment score [1]: inactive: 0.249 | enrichment score [2]: inactive: 0.407 | enrichment score [3]: inactive: 0.269 | enrichment score [4]: inactive: 0.331 | enrichment score [5]: inactive: 0.256 | enrichment score [6]: inactive: 0.322

GKSFTYAAFHA [KCNT1_Y563]
enrichment score [1]: inactive: 1.27 | enrichment score [2]: inactive: 0.97 | enrichment score [3]: inactive: 1.07 | enrichment score [4]: inactive: 1.17 | enrichment score [5]: inactive: 1.08 | enrichment score [6]: inactive: 0.824

ILTFKYLQIPM [KIT_Y547_K550I_YF]
enrichment score [1]: active: 3.87 | enrichment score [2]: inactive: 3.07 | enrichment score [3]: active: 3.24 | enrichment score [4]: inactive: 3.06 | enrichment score [5]: active: 3.35 | enrichment score [6]: inactive: 2.91

NKYVAYIESQG [KDM4B_Y34]
enrichment score [1]: inactive: 1.04 | enrichment score [2]: inactive: 1.31 | enrichment score [3]: inactive: 0.707 | enrichment score [4]: inactive: 1.02 | enrichment score [5]: inactive: 0.848 | enrichment score [6]: inactive: 0.929

KDFNKYVAYIE [KDM4B_Y31]
enrichment score [1]: inactive: 0.889 | enrichment score [2]: inactive: 0.941 | enrichment score [3]: inactive: 0.788 | enrichment score [4]: inactive: 0.833 | enrichment score [5]: inactive: 0.992 | enrichment score [6]: inactive: 0.985

RQGKDYIGAIP [KDR_Y951_V952I]
enrichment score [1]: inactive: 0.7 | enrichment score [2]: inactive: 0.919 | enrichment score [3]: inactive: 1.22 | enrichment score [4]: inactive: 0.554 | enrichment score [5]: inactive: 0.665 | enrichment score [6]: inactive: 0.921

DPKFHYDNTAG [KDR_Y1214]
enrichment score [1]: inactive: 0.574 | enrichment score [2]: inactive: 0.733 | enrichment score [3]: inactive: 0.521 | enrichment score [4]: inactive: 0.452 | enrichment score [5]: inactive: 0.684 | enrichment score [6]: inactive: 0.707

ILTYKYLQKPM [KIT_Y547]
enrichment score [1]: inactive: 0.766 | enrichment score [2]: inactive: 0.669 | enrichment score [3]: inactive: 0.783 | enrichment score [4]: inactive: 0.625 | enrichment score [5]: inactive: 0.797 | enrichment score [6]: inactive: 0.609

GCRSKYVGLWR [KCNQ1_Y184_G189R]
enrichment score [1]: inactive: 0.847 | enrichment score [2]: inactive: 0.898 | enrichment score [3]: inactive: 0.686 | enrichment score [4]: inactive: 0.756 | enrichment score [5]: inactive: 0.648 | enrichment score [6]: inactive: 0.678

LITTLYISFLG [KCNQ1_Y267_G269S]
enrichment score [1]: active: 3.32 | enrichment score [2]: active: 3.55 | enrichment score [3]: inactive: 2.39 | enrichment score [4]: inactive: 2.64 | enrichment score [5]: inactive: 2.42 | enrichment score [6]: inactive: 2.96

LVTAWYIGFLC [KCNQ2_Y237]
enrichment score [1]: inactive: 3.1 | enrichment score [2]: inactive: 3.17 | enrichment score [3]: inactive: 2.01 | enrichment score [4]: inactive: 2.03 | enrichment score [5]: inactive: 2.46 | enrichment score [6]: inactive: 2.93

LYSINYLHFGE [KDM4C_Y201]
enrichment score [1]: active: 3.77 | enrichment score [2]: active: 5.59 | enrichment score [3]: active: 4.57 | enrichment score [4]: active: 7.36 | enrichment score [5]: active: 4.97 | enrichment score [6]: active: 3.59

ILTYKYLQIPM [KIT_Y547_K550I]
enrichment score [1]: inactive: 2 | enrichment score [2]: active: 3.38 | enrichment score [3]: inactive: 3.16 | enrichment score [4]: active: 5.2 | enrichment score [5]: active: 3.94 | enrichment score [6]: inactive: 2.05

ESLRSYDVMDV [KCNQ2_Y562_P561S]
enrichment score [1]: inactive: 0.749 | enrichment score [2]: inactive: 0.89 | enrichment score [3]: inactive: 0.885 | enrichment score [4]: inactive: 0.731 | enrichment score [5]: inactive: 0.796 | enrichment score [6]: inactive: 1.12

KDFTKYVAFIE [KDM4B_Y31_N29T_YF]
enrichment score [1]: inactive: 0.807 | enrichment score [2]: inactive: 1.08 | enrichment score [3]: inactive: 0.879 | enrichment score [4]: inactive: 0.889 | enrichment score [5]: inactive: 0.905 | enrichment score [6]: inactive: 0.901

VKFLGYPPPEI [KDR_Y357_A352V_YF]
enrichment score [1]: inactive: 1.34 | enrichment score [2]: inactive: 1.3 | enrichment score [3]: inactive: 0.997 | enrichment score [4]: inactive: 1.1 | enrichment score [5]: inactive: 1.13 | enrichment score [6]: inactive: 1.05

VVTGPYEKPSL [KIR3DS1_Y221_L220P]
enrichment score [1]: inactive: 0.673 | enrichment score [2]: inactive: 0.573 | enrichment score [3]: inactive: 0.696 | enrichment score [4]: inactive: 0.581 | enrichment score [5]: inactive: 0.744 | enrichment score [6]: inactive: 0.801

GCRSKYVRLWG [KCNQ1_Y184_G186R]
enrichment score [1]: inactive: 1.28 | enrichment score [2]: inactive: 1.39 | enrichment score [3]: inactive: 1.98 | enrichment score [4]: active: 3.38 | enrichment score [5]: inactive: 2.24 | enrichment score [6]: inactive: 1.12

LITTPYIGFLG [KCNQ1_Y267_L266P]
enrichment score [1]: inactive: 1.29 | enrichment score [2]: inactive: 2.13 | enrichment score [3]: inactive: 0.968 | enrichment score [4]: inactive: 2.45 | enrichment score [5]: inactive: 0.898 | enrichment score [6]: inactive: 1.47

DLKFHYDNTAG [KDR_Y1214_P1210L]
enrichment score [1]: inactive: 1.11 | enrichment score [2]: inactive: 0.99 | enrichment score [3]: inactive: 0.947 | enrichment score [4]: inactive: 0.688 | enrichment score [5]: inactive: 0.732 | enrichment score [6]: inactive: 0.822

LQIPMYEVQWK [KIT_Y553_K550I]
enrichment score [1]: inactive: 1.2 | enrichment score [2]: inactive: 1.51 | enrichment score [3]: inactive: 1.77 | enrichment score [4]: inactive: 1.33 | enrichment score [5]: inactive: 1.29 | enrichment score [6]: inactive: 1.86

PTQLPYDHKWK [KIT_Y578_E583K]
enrichment score [1]: inactive: 0.841 | enrichment score [2]: inactive: 0.706 | enrichment score [3]: inactive: 0.68 | enrichment score [4]: inactive: 0.627 | enrichment score [5]: inactive: 0.663 | enrichment score [6]: inactive: 0.95

DRSSLYLVAGP [KIAA1614_Y1083_N1078D]
enrichment score [1]: inactive: 0.979 | enrichment score [2]: inactive: 0.796 | enrichment score [3]: inactive: 0.801 | enrichment score [4]: inactive: 0.968 | enrichment score [5]: inactive: 0.822 | enrichment score [6]: inactive: 0.872

GCRSKHVGLWG [KCNQ1_Y184_Y184H]
enrichment score [1]: inactive: 1.27 | enrichment score [2]: inactive: 1.58 | enrichment score [3]: inactive: 1.4 | enrichment score [4]: inactive: 1.22 | enrichment score [5]: inactive: 1.42 | enrichment score [6]: inactive: 1.34

TESALYGCTVL [KIAA1804_Y724]
enrichment score [1]: inactive: 1.08 | enrichment score [2]: inactive: 1.48 | enrichment score [3]: inactive: 1.35 | enrichment score [4]: inactive: 0.91 | enrichment score [5]: inactive: 0.962 | enrichment score [6]: inactive: 1.42

ADFFDYGRGLS [KHDRBS3_Y304_H306R_YF]
enrichment score [1]: inactive: 0.903 | enrichment score [2]: inactive: 0.639 | enrichment score [3]: inactive: 0.668 | enrichment score [4]: inactive: 0.69 | enrichment score [5]: inactive: 0.746 | enrichment score [6]: inactive: 0.795

TKEPKYEGAGS [KIAA1210_Y1615]
enrichment score [1]: inactive: 0.436 | enrichment score [2]: inactive: 0.371 | enrichment score [3]: inactive: 0.521 | enrichment score [4]: inactive: 0.574 | enrichment score [5]: inactive: 0.603 | enrichment score [6]: inactive: 0.502

SAEEDYMADAK [KCNT1_Y876]
enrichment score [1]: inactive: 0.587 | enrichment score [2]: inactive: 0.507 | enrichment score [3]: inactive: 0.54 | enrichment score [4]: inactive: 0.598 | enrichment score [5]: inactive: 0.484 | enrichment score [6]: inactive: 0.481

QSSEGYGLGDR [KIAA1210_Y564]
enrichment score [1]: inactive: 0.557 | enrichment score [2]: inactive: 0.392 | enrichment score [3]: inactive: 0.38 | enrichment score [4]: inactive: 0.412 | enrichment score [5]: inactive: 0.34 | enrichment score [6]: inactive: 0.299

TESALYGCTVV [KIAA1804_Y724_L729V]
enrichment score [1]: inactive: 0.852 | enrichment score [2]: inactive: 1.05 | enrichment score [3]: inactive: 0.703 | enrichment score [4]: inactive: 0.726 | enrichment score [5]: inactive: 0.648 | enrichment score [6]: inactive: 1.22

LFSINYLHFGE [KDM4C_Y201_YF]
enrichment score [1]: active: 6.75 | enrichment score [2]: active: 6.36 | enrichment score [3]: active: 6.1 | enrichment score [4]: active: 7.37 | enrichment score [5]: active: 6.86 | enrichment score [6]: active: 5.54

PTQLPYDHKWE [KIT_Y578]
enrichment score [1]: inactive: 0.678 | enrichment score [2]: inactive: 0.596 | enrichment score [3]: inactive: 0.801 | enrichment score [4]: inactive: 0.75 | enrichment score [5]: inactive: 0.744 | enrichment score [6]: inactive: 0.925

LITTLYIGFLG [KCNQ1_Y267]
enrichment score [1]: inactive: 2.89 | enrichment score [2]: active: 3.51 | enrichment score [3]: active: 3.43 | enrichment score [4]: inactive: 2.66 | enrichment score [5]: active: 3.22 | enrichment score [6]: active: 4.11
